# Source: the supplement of paper PMC10126150
# Values marked as one replicate rest on one cluster of the flow cell; about a third of the high ones do not repeat.
# System: ATP
# Assay: switch fluorescence ratio, 500 uM ATP over buffer (Cy3 cluster intensity, sum of 5 cycles each) (fold (ratio)); higher = stronger signal-on switching upon ATP binding; sequences stand for … in TCGTCGGCAGCGTCAGATGTGTATAAGAGACAGTTTTTTTTTTTTTTTTTTTTTTTTT…TC
# Conditions: aptamer strand: ATP DNA aptamer (quencher-CACCTGGGGGAGTATTGCGGAGGAAGG + anchor), 100 nM annealed; ATP concentration: 500 uM; one replicate
# Outline: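 For every switch-domain sequence, the fluorescence ratio is the mean of per-cluster values, each being summed target-cycle Cy3 intensity over summed buffer-cycle Cy3 intensity. Clusters outside 100-1000 RFU were excluded. On a modified Illumina MiSeq flow-cell, the Cy3-labelled switching-strand clusters were annealed to 100 nM quencher-labelled ATP aptamer, imaged in selection buffer and then after 15 min with 500 uM ATP at 22 °C. Five such cycles were run, with NaOH stripping and re-annealing between them.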
# 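Note: ATP exposure 15 min at 22 °C before imaging.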
row,Sequence,switch fluorescence ratio
1,TTTAGAACCC,1.08
2,TTTAGAAGT,0.989
3,TTTAGCACGC,1.05
4,TTTAGCTATT,0.988
5,TTTAGCTGGA,0.988
6,TTTAGGTGG,0.961
7,TTTAGTAAGC,0.985
8,TTTAGTCTTG,0.936
9,TTTAGTGAAA,1.04
10,TTTAGTTC,0.944
11,TTTATAACGA,1.02
12,TTTATACAAA,0.997
13,TTTATATCGC,1.01
14,TTTATATTGT,0.998
15,TTTATCTCTT,0.951
16,TTTATGATCC,1
17,TTTATGGCTC,1.03
18,TTTATGTGTA,1.02
19,TTTCAAACAC,1.05
20,TTTCAAACCA,1
21,TTTCAATTTC,1.05
22,TTTCACACCG,1.05
23,TTTCAGAAG,1.08
24,TTTCAGCCCT,1.04

row,Sequence,switch fluorescence ratio
1,TTTCAGGGCG,1.07
2,TTTCATCCAC,1.18
3,TTTCATGCTG,0.949
4,TTTCATTTTC,1.03
5,TTTCCAGTTT,0.977
6,TTTCCATGA,1.02
7,TTTCCATGTC,0.991
8,TTTCCCACTT,1.09
9,TTTCCCCTCG,1.03
10,TTTCCGTATA,1.27
11,TTTCCTACGT,0.997
12,TTTCCTGGTG,1.13
13,TTTCCTTATA,1
14,TTTCCTTCGG,1.11
15,TTTCGAGTAA,0.993
16,TTTCGCATCG,1.03
17,TTTCGCCGC,1.06
18,TTTCGCG,0.974
19,TTTCGCGGTG,1.02
20,TTTCGCTGAG,1.08
21,TTTCGTTAGT,0.998
22,TTTCTATAAG,0.975
23,TTTCTATAAT,0.992
24,TTTCTCGAGC,0.985

row,Sequence,switch fluorescence ratio
1,TTTCTGACAT,0.992
2,TTTCTGTCGT,0.987
3,TTTCTTAGG,1.03
4,TTTCTTCCGG,1.11
5,TTTCTTCTTA,0.942
6,TTTCTTGCCC,1.06
7,TTTGAAAGAT,1.03
8,TTTGAAGACG,0.991
9,TTTGAAGGCC,0.953
10,TTTGACCCCG,0.987
11,TTTGACCGGC,1.05
12,TTTGACTGTG,0.969
13,TTTGAGAAGT,1.02
14,TTTGAGCCTT,1
15,TTTGAGCTTC,0.974
16,TTTGAGGGCC,0.985
17,TTTGAGTAG,0.965
18,TTTGATACGT,1.03
19,TTTGATTTC,1.01
20,TTTGATTTCA,1.01
21,TTTGCATACG,2.57
22,TTTGCATTA,1.2
23,TTTGCCATCG,1
24,TTTGCCTGTG,1.02

row,Sequence,switch fluorescence ratio
1,TTTGCGAAAC,1.9
2,TTTGCGAGG,0.97
3,TTTGCTAATT,1.07
4,TTTGCTGCTA,1.01
5,TTTGCTGTCT,0.991
6,TTTGCTTCAT,0.997
7,TTTGGAAGAA,0.995
8,TTTGGAGCCT,1.75
9,TTTGGAGCGA,1.02
10,TTTGGATAA,0.938
11,TTTGGATAAT,0.952
12,TTTGGATACT,1.04
13,TTTGGCACGG,0.981
14,TTTGGCCAGT,0.996
15,TTTGGCCGCC,0.994
16,TTTGGCCTCG,0.952
17,TTTGGCGTAG,0.982
18,TTTGGCGTTA,0.996
19,TTTGGCTAT,0.988
20,TTTGGGAGAA,0.962
21,TTTGGTGAGA,1.04
22,TTTGGTGTAA,1.04
23,TTTGTACGT,0.998
24,TTTGTCCCCT,0.965

row,Sequence,switch fluorescence ratio
1,TTTGTGTGTG,0.988
2,TTTGTGTTGA,1
3,TTTGTTAGCC,1.02
4,TTTTAACAAC,1.05
5,TTTTAATATG,0.986
6,TTTTAATCCG,1.08
7,TTTTACACGG,0.993
8,TTTTACATGC,1.03
9,TTTTACGAAA,1.78
10,TTTTACTAAC,1.17
11,TTTTACTGGT,1
12,TTTTAGCAGT,1.05
13,TTTTAGTGAG,1.03
14,TTTTATCAGC,1.05
15,TTTTATGGAA,1
16,TTTTATTG,1.02
17,TTTTCGTCGG,1.05
18,TTTTCGTCTA,0.955
19,TTTTCGTGGA,0.985
20,TTTTCGTTAC,1.31
21,TTTTGACCAT,1.02
22,TTTTGATGTC,0.953
23,TTTTGCAGTA,0.995
24,TTTTGCCATC,0.968

row,Sequence,switch fluorescence ratio
1,TTTTGCCT,1.01
2,TTTTGCGTAC,3.32
3,TTTTGCGTTA,1.06
4,TTTTGCTAG,0.984
5,TTTTGGATGG,0.961
6,TTTTGGCGAG,0.98
7,TTTTGGTATG,1.03
8,TTTTGGTCGC,1.05
9,TTTTGTCGGC,1
10,TTTTGTCTG,0.93
11,TTTTTAACC,0.99
12,TTTTTACATA,1.05
13,TTTTTACGAC,1.01
14,TTTTTAGCAC,1.37
15,TTTTTCATG,1.01
16,TTTTTGAGA,0.997
17,TTTTTGGAC,1.08
18,TTTTTGTACA,1.02
19,TTTTTTATC,1
